From PubChem BioAssay AID588342 (National Center for Advancing Translational Sciences (NCATS), 2011)
Among all 360,000 compounds or so, about 25,000 (6.9%) were called active. This list was built around the results that the source calls inconclusive (neither active nor inactive); the mix of calls is not that of the screen. The call rests on the fitted dose curve; in most records, active means well fitted inhibition curve with a large enough effect; inconclusive means small, poorly fitted or top-dose-only effect; inactive means flat fitted curve, though single readings scatter. Potencies beside an inconclusive call are fits to weak or partial responses and may not hold up.

These molecules were tested against Luciferin 4-monooxygenase (Photinus pyralis) (UniProt P08659) (assay: qHTS profiling assay for firefly luciferase inhibitor/activator using purifed enzyme and Km concentrations of substrates (counterscreen for miR-21 project)). Conditions: purified FLuc, luminescence inhibition; activity change, negative = inhibition: at 57.5 µM (top of the series).
How it was run: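 Biochemical qHTS of compounds, final roughly 60 µM downward over six points, against 10 nM purified firefly luciferase using Km concentrations of substrates (10 uM D-luciferin, 10 uM ATP) in Tris acetate pH 7.5 buffer; luminescence output.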
Further: nearly all actives have a fitted effect of over 55% in size.
Potency means the concentration at half of the fitted maximal effect; tags describe the fitted curve by direction and shape.
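Wherever activity change, negative = inhibition is given: plate controls were vehicle for no effect and reference inhibitor for full effect.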

Sequence of UniProt P08659 (P08659 whole entry, looked up): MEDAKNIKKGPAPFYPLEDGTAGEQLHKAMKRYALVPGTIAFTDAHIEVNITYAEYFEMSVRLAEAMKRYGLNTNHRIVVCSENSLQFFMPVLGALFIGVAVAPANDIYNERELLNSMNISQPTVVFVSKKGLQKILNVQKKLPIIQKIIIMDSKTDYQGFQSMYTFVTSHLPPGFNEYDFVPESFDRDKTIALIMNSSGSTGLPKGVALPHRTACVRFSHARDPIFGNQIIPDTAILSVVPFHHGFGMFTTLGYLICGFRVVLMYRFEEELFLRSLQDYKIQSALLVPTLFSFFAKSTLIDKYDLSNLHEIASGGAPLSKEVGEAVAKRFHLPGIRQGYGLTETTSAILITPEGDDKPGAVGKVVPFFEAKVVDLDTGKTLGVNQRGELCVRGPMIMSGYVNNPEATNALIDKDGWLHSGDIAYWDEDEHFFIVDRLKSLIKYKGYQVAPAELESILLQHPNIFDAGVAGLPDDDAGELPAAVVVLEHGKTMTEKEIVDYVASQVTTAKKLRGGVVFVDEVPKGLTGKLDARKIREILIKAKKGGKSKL

| SMILES | Potency | activity change, negative = inhibition |
| --- | --- | --- |
| COCCCNC(=S)N1CCCC(c2nc3cc(C)c(C)cc3[nH]2)C1 (stereo unspecified) | inconclusive: 33.8 µM [inhibitor, single point] | – |
| CCCn1nc([N+](=O)[O-])c(C(C#N)c2nc3ccccc3s2)c(Cl)c1=O (stereo unspecified) | inconclusive: 37.9 µM [inhibitor, single point] | – |
| CC(C)C(=O)N1CCN(c2ccc(NC(=O)c3cccs3)cc2Cl)CC1 | inconclusive: 37.9 µM [inhibitor, partial curve, poor fit] | – |
| COc1cccc(C(=O)N/N=C(\CC(C)C)c2ccccc2)c1 | inconclusive: 23.9 µM [inhibitor, single point] | – |
| O=c1c(Cl)c(N2CCN(c3ccc(F)cc3)CC2)cnn1-c1nc2ccccc2s1 | active: 19 µM | – |
| COc1ccc(CC(=O)Nc2ccc(N3CCCCC3)cc2)cc1 | inconclusive: 9.53 µM [inhibitor, partial curve, poor fit] | – |
| CCc1ccc(N2C(=O)Nc3ccccc3C2(O)C(=O)N2CCN(c3ccccn3)CC2)cc1 (stereo unspecified) | inconclusive: 21.3 µM [inhibitor, single point] | – |
| COc1cccc(NC(=O)c2cnc[nH]2)c1 | inconclusive: 33.8 µM [inhibitor, partial curve, poor fit] | – |
| CC(C)(NC(=O)c1cc(Cl)c2ccccc2c1O)C(=O)O | inconclusive: 23.9 µM [inhibitor, single point] | – |
| CNC(=O)c1c(NC(=O)C2=COCCO2)sc2c1CCN(C(=O)OC)C2 | – | inactive: -9.43% |
| COc1cc2c(cc1OC)-c1cc(Nc3ccc(C(=O)O)cc3)nc(=O)n1CC2 | inconclusive: 21.3 µM [inhibitor, single point] | – |
| O=C(NC(=S)Nc1ccc(CN2CCOCC2)cc1)c1cccc(F)c1 | inconclusive: 23.9 µM [inhibitor, partial curve, poor fit] | – |
| Cc1ccc2c(=O)cc(C(=O)Nc3c(C(=O)Nc4cccc(Cl)c4)oc4ccccc34)oc2c1 | – | inactive: 1.19% |
| O=C(Nc1ccc(C(=O)OCc2cc(=O)n3c4c(sc3n2)CCCC4)cc1)c1ccc(Cl)cc1 | – | inactive: 2.31% |
| COc1ccc(NC(=O)c2c(NCc3cccs3)sc3c2CCCC3)cc1 | inconclusive: 37.9 µM [inhibitor, partial curve, poor fit] | – |
| CCCCN(C)CC(O)Cn1cc(/C=C/C(=O)c2ccc(C)cc2)c2ccccc21 (stereo unspecified) | inconclusive: 30.1 µM [inhibitor, single point] | – |
| Cc1[nH]c2ccccc2c1/C=N/NC(=O)c1ccc(N)cc1 | active: 12 µM | – |
| Cc1ccc(S(=O)(=O)NN2C(=O)c3ccccc3NC2c2ccco2)cc1 (stereo unspecified) | – | inactive: -2.43% |
| O=C(Nc1ccccc1N1CCOCC1)c1ccc2c(c1)OCCO2 | inconclusive: 33.8 µM [inhibitor, partial curve, poor fit] | – |
| CCOC(=O)CNC(=O)CSc1ncccc1-c1nc2ccccc2[nH]1 | inconclusive: 37.9 µM [inhibitor, single point] | – |
| O=c1oc2c(CN3CCCC3)c(O)ccc2cc1-c1ccccc1 | inconclusive: 23.9 µM [inhibitor, partial curve] | – |
| O=C(COC(=O)c1cnccn1)c1ccc(OC(=O)c2ccccc2)cc1 | inconclusive: 12 µM [inhibitor, partial curve, poor fit] | – |
| COCc1c(C(=O)OCC(=O)Nc2ccc(OC(F)F)cc2)oc2ccccc12 | – | inactive: -0.0136% |
| CC(C)C(=O)Nc1cccc(C(=O)Nc2nnc(CC(C)(C)C)s2)c1 | inconclusive: 13.5 µM [inhibitor, partial curve] | – |

| SMILES | Potency | activity change, negative = inhibition |
| --- | --- | --- |
| Cc1ccc(O)c(NC(=O)c2cc(-c3ccccc3Cl)on2)c1 | inconclusive: 5.36 µM [inhibitor, full curve] | – |
| CCCCC(=O)Nc1cccc(C(=O)N/N=C/c2ccc(OC)cc2OC)c1 | active: 16.9 µM | – |
| CSc1ccc(/C=C/c2cc(=O)c3ccccc3[nH]2)cc1 | inconclusive: 3.01 µM [inhibitor, full curve] | – |
| Cn1cc(-c2cc3n(n2)CCC(=O)N3CC(=O)NCc2ccc(Cl)cc2)c2ccccc21 | – | inactive: -5.4% |
| CCOC(=O)Nc1ccc2c(c1)N(C(=O)N1CCN(C)CC1)c1ccccc1CC2 | inconclusive: 26.9 µM [inhibitor, single point] | – |
| CN(C(=O)C1CCOC1)c1nnc(-c2ccncc2)s1 (stereo unspecified) | – | inactive: -4.1% |
| O=C(COc1ccccc1[N+](=O)[O-])N1CCC(c2nc3ccccc3o2)CC1 | – | inactive: 1.21% |
| COc1ccccc1-c1nnc(NC(=O)C(C)SC2=NCCS2)s1 (stereo unspecified) | inconclusive: 26.9 µM [inhibitor, single point] | – |
| COc1ccccc1CCNC(=O)C(=O)c1cn(CC(=O)N2CCCC2)c2ccccc12 | active: 10.7 µM | – |
| CCCCCCCn1ccc(O)c(CC(=O)OC)c1=O | – | inactive: 1.93% |
| Cc1cccc(NS(=O)(=O)c2cc(C(=O)OCC(=O)Nc3cc(C)on3)ccc2C)c1 | – | inactive: 5.89% |
| CCOc1cc2sc(N3CCC(C(=O)NCCCN4CCCC4=O)CC3)nc2cc1Br | active: 15.1 µM | – |
| Cc1ccc(-c2cc(C(=O)NC3CCN(Cc4ccccc4)CC3)c3ccccc3n2)cc1 | inconclusive: 16.9 µM [inhibitor, partial curve, poor fit] | – |
| Cc1ccc(NC(=O)NCc2cccnc2)cc1Cl | inconclusive: 30.1 µM [inhibitor, partial curve, poor fit] | – |
| O=C(O)C(Cc1ccccc1)N1C(=O)/C(=C/C=C/c2ccco2)SC1=S (stereo unspecified) | inconclusive: 23.9 µM [inhibitor, partial curve, poor fit] | – |
| Cc1cccc(N=C2NC(=O)/C(=C/C=C/c3ccco3)S2)c1C | inconclusive: 30.1 µM [inhibitor, partial curve, poor fit] | – |
| CSc1ccc(CNc2ccccc2)cc1 | inconclusive: 21.3 µM [inhibitor, partial curve] | – |
| COc1cc2c(C#N)c(N3CCOCC3)nc(N)c2c(N)n1 | inconclusive: 26.9 µM [inhibitor, single point] | – |
| COc1ccccc1C(=O)Nc1ccc(C(=O)N2CCCCC2)cc1 | inconclusive: 21.3 µM [inhibitor, partial curve, poor fit] | – |
| O=C(CN1C(=O)/C(=C/c2cccc(Br)c2)SC1=S)Nc1cccnc1 | inconclusive: 4.26 µM [inhibitor, partial curve, poor fit] | – |
| O=C1/C(=C/c2ccc([N+](=O)[O-])cc2)Oc2cc(O)ccc21 | active: 4.78 µM | – |
| CCCCN(CC)CCCNC(=O)C1CCCN(c2ncnc3c2nc2n3CCCCC2)C1 (stereo unspecified) | – | inactive: -0.406% |
| O=C1CC(c2cccc(O)c2)c2cc3c(cc2N1)OCO3 (stereo unspecified) | – | inactive: -13.3% |
| CN(C)/C=C1/C=C(c2ccccc2)OC1=O | inconclusive: 33.8 µM [inhibitor, partial curve, poor fit] | – |

| SMILES | Potency | activity change, negative = inhibition |
| --- | --- | --- |
| CC(C)[C@H](NC(=O)[C@@H]1CSC2c3ccccc3C(=O)N21)C(=O)NC1CCCCC1 (stereo partly specified) | – | inactive: 3.25% |
| CS(=O)(=O)Nc1cccc(C2=NN(C(=O)c3cccc([N+](=O)[O-])c3)C(c3cccs3)C2)c1 (stereo unspecified) | – | inactive: 1.46% |
| Cc1ccc(C(=O)CCC(=O)Nc2ccccc2F)cc1 | inconclusive: 26.9 µM [inhibitor, single point] | – |
| CC(CNC(=O)C1CCN(S(=O)(=O)c2ccc3c(ccn3C)c2)CC1)c1ccccc1 (stereo unspecified) | – | inactive: -4.62% |
| COc1cc(/C=N/NC(=S)NCCc2ccccc2)cc(OC)c1OC | active: 26.9 µM | – |
| CC(CCc1ccccc1)NC(=O)CCNS(=O)(=O)c1ccccc1C(F)(F)F (stereo unspecified) | – | inactive: 2.81% |
| O=C(NC1CC(=O)N(c2ccccc2)C1)c1ccco1 (stereo unspecified) | – | inactive: -0.409% |
| Cc1ccc(C(=O)N2CCc3cc(CNC(=O)CCc4ccccc4)ccc32)cc1 | inconclusive: 23.9 µM [inhibitor, partial curve] | – |
| COc1cccc(C(=O)NCCc2csc(-c3cccc(F)c3)n2)c1OC | inconclusive: 16.9 µM [inhibitor, partial curve, poor fit] | – |
| Cc1cc(C(=O)Nc2ccc(C(=O)O)cc2)c(C)o1 | inconclusive: 37.9 µM [inhibitor, partial curve, poor fit] | – |
| CCOC(=O)c1ccccc1NC(=O)COC(=O)c1c(CC)noc1C | – | inactive: 0.642% |
| O=C(Nc1ccc(F)cc1)Nc1ccc2snnc2c1 | active: 23.9 µM | – |
| Cc1csc(NC(=O)c2ccoc2C)n1 | inconclusive: 26.9 µM [inhibitor, partial curve] | – |
| CCCCn1nnc(NC(=O)c2ccc(-c3cccc([N+](=O)[O-])c3)o2)n1 | inconclusive: 23.9 µM [inhibitor, partial curve, poor fit] | – |
| O=C(CSc1ncnc2sc(-c3ccccc3)cc12)NC1CCS(=O)(=O)C1 (stereo unspecified) | inconclusive: 26.9 µM [inhibitor, single point] | – |
| CCOC(=O)CSc1nnc(-c2ccccc2)o1 | inconclusive: 16.9 µM [inhibitor, partial curve] | – |
| Nc1nc(CSc2ccc(Cl)cc2)nc(N2CCCCC2)n1 | inconclusive: 37.9 µM [inhibitor, partial curve, poor fit] | – |
| COc1ccc(C(=O)N/N=C2\SCC(=O)N2Cc2ccc3c(c2)OCO3)c(OC)c1 | – | inactive: 2.32% |
| CC(=O)c1cccc(NC(=S)NCCC2=CCCCC2)c1 | inconclusive: 23.9 µM [inhibitor, partial curve, poor fit] | – |
| Cc1cccc(CSc2nc3sc(C)c(C)c3c(=O)n2Cc2ccco2)c1 | – | inactive: 4.66% |
| O=C(Cn1c(=O)n(CCCS(=O)(=O)C2CCCCC2)c(=O)c2ccccc21)Nc1ccc(F)c(Cl)c1 | – | inactive: -0.645% |
| Clc1nc2c(ccc3ccccc32)[nH]1 | inconclusive: 21.3 µM [inhibitor, single point] | – |
| Cn1c(SCC(=O)Nc2cccc(NC(=O)c3cccs3)c2)nnc1-c1ccncc1 | inconclusive: 21.3 µM [inhibitor, partial curve, poor fit] | – |
